From paper PMC6588450 (Cell chemical biology, 2019)

What was measured:
[1] = test system: HCT116 CDK14 knockout cells expressing WT or C218S CDK14; assay: FACS PI cell cycle analysis; format: cell-based, human; details: 24 h treatment
[2] = test system: phosphorylated RB S807/811; assay: Immunoblot of phosphorylated RB S807/811 in HCT116 cells; format: cell-based, human; details: 1 μM
[3] = test system: Nucleophosmin (NPM) T199 phosphorylation; assay: Immunoblot of Nucleophosmin; format: cell-based, human; details: HCT116 cells, 1 μM
pLRP6 S1490 = assay: LRP6 S1490 phosphorylation in double thymidine-synchronized cells; format: cell-based, human; details: 1 μM, 4 h windows, 8 to 10 h after release
CDK14 = CDK14 (Homo sapiens, UniProt O94921); assay: NanoBRET live cell target engagement CDK14; format: cell-based; details: IC50 CDK14 NanoBRET, HCT116 cells, without compound washout; ± SEM
HCT116 cells = assay: HCT116 antiproliferation assay; format: cell-based, human
CDK2 = CDK2 (Homo sapiens, UniProt P24941); assay: NanoBRET live cell target engagement CDK2; format: cell-based
CDK2/CycA = CDK2/CycA (Homo sapiens, UniProt P24941); assay: Z'LYTE kinase assay CDK2/CycA; format: biochemical

UniProt O94921, sequence (O94921 whole entry): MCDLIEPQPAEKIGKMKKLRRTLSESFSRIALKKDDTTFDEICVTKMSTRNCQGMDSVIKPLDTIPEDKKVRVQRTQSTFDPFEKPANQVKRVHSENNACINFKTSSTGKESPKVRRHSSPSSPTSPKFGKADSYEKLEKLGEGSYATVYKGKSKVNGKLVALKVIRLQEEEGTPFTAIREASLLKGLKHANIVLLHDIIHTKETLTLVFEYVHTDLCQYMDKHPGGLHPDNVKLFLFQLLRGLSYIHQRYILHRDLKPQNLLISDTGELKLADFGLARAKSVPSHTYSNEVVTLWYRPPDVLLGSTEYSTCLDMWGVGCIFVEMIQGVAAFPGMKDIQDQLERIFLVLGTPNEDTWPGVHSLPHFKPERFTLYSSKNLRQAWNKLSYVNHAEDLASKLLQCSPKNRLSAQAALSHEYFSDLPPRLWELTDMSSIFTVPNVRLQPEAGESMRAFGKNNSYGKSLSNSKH
UniProt O94921, sequence (Q8ND76 whole entry partner): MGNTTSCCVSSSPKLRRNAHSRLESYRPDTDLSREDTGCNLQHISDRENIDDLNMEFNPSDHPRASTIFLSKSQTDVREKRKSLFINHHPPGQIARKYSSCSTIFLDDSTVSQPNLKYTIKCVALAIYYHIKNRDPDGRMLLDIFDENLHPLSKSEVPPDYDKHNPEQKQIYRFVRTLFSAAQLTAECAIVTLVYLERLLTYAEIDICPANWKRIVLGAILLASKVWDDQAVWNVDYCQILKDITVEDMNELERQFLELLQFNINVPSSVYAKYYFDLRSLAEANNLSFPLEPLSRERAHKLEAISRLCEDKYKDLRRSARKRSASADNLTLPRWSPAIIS

| Compound | effect on cell cycle phase distribution [1] | levels of phosphorylated RB S807/811 [2] | Inhibition of NPM T199 phosphorylation [3] | other results |
| --- | --- | --- | --- | --- |
| CN(C)CCCC(=O)Nc1cccc(S(=O)(=O)N2CCC(NC(=O)c3n[nH]cc3NC(=O)c3c(Cl)cc(Cl)cc3Cl)CC2)c1 [FMF-04-159-R, N-(1-((3-(4-(dimethylamino)butanamido)phenyl)sulfonyl)piperidin-4-yl)-4-(2,4,6-trichlorobenzamido)-1H-pyrazole-3-carboxamide] | increases in cells in G1 and G2/M and a reduction in S-phase cells | did not observe major reductions | comparable to AT7519 |  |
| CN(C)C/C=C/C(=O)Nc1cccc(S(=O)(=O)N2CCC(NC(=O)c3n[nH]cc3NC(=O)c3c(Cl)cc(Cl)cc3Cl)CC2)c1 [FMF-04-159-2, (E)-N-(1-((3-(4-(dimethylamino)but-2-enamido)phenyl)sulfonyl)piperidin-4-yl)-4-(2,4,6-trichlorobenzamido)-1H-pyrazole-3-carboxamide] | increased numbers of cells in G2/M |  | comparable to AT7519 | reduction of pLRP6 during mitosis (pLRP6 S1490): 22 – 35%; IC50 (CDK14): 39.6 ± 2.8 nM; fold less potent than FMF-03-198-2 in HCT116 cell proliferation assays (HCT116 cells): more than 200 fold |
| CN(C)C/C=C/C(=O)Nc1cccc(S(=O)(=O)N2CCC(NC(=O)c3n[nH]cc3NC(=O)c3c(Cl)cccc3Cl)CC2)c1 [FMF-03-198-2, (E)-4-(2,6-dichlorobenzamido)-N-(1-((3-(4-(dimethylamino)but-2-enamido)phenyl)sulfonyl)piperidin-4-yl)-1H-pyrazole-3-carboxamide] |  |  |  | IC50 (CDK2): 113 ± 62.1 nM; IC50 (CDK2/CycA): 1 ± 0.7 nM |
| O=C(NC1CCNCC1)c1n[nH]cc1NC(=O)c1c(Cl)cccc1Cl [AT7519, N-(4-piperidinyl)-4-(2,6-dichlorobenzoylamino)-1 H-pyrazole-3-carboxamide, reference compound] |  | partial reduction |  |  |
